# Measurements as given in publication PMC5108325.
# Chains of the proteins cited; added tags and fusions are not shown.
# UniProt Q9UBN7: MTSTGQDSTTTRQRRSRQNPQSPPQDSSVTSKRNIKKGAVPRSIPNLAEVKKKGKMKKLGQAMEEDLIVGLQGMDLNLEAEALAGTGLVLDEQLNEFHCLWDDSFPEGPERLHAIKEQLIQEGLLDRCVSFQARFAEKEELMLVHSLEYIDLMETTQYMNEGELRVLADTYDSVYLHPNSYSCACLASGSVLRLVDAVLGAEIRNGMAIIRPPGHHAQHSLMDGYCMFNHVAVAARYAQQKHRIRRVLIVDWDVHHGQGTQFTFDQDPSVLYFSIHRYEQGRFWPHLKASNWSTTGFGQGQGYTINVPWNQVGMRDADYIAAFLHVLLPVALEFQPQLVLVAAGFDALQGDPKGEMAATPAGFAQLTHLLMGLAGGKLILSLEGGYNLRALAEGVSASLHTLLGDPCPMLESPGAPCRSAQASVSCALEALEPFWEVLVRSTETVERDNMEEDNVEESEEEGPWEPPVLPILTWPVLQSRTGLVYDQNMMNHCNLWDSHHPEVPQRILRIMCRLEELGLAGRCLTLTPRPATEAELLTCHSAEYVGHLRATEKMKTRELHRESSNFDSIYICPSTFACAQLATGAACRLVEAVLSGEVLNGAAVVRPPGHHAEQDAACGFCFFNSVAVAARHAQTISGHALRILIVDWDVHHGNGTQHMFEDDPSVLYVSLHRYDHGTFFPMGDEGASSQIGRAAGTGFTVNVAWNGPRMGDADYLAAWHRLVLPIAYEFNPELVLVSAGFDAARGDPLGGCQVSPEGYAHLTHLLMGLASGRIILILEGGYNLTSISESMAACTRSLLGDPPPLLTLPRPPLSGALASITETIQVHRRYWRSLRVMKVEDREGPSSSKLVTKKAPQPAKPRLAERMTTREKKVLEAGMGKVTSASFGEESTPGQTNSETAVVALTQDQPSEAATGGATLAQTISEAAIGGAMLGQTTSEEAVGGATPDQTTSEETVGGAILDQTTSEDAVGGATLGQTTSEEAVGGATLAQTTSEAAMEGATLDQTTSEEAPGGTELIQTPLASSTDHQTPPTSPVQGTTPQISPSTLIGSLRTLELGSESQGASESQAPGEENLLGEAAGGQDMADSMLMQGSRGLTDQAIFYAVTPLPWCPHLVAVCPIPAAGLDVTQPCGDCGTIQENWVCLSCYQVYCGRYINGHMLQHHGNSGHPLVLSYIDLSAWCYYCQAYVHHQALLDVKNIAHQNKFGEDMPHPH
# UniProt Q5SQI0: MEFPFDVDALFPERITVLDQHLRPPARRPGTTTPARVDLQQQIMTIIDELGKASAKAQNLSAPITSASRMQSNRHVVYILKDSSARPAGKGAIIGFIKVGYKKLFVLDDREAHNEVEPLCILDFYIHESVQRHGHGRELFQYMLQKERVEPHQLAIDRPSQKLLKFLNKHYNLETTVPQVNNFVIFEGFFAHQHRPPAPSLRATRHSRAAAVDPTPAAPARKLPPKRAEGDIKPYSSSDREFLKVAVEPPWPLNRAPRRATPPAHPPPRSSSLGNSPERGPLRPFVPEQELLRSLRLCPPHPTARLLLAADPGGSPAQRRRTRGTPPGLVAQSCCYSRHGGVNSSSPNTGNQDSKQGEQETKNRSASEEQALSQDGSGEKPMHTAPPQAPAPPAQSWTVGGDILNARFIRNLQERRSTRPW
# Like-named read-outs stand apart in the source and are kept apart here. No constants are given. Whether binding was seen depends on the method and setting. In cells and extracts the contact can be indirect. Some results given as binding are weak or reduced against the parent protein; the word gives no strength. For some assays here: Tags and fused reporters may be left off the sequences shown.
# T1: BEX4 (endogenous, U2OS) (human (endogenous in U2OS)) (UniProt Q9NWD9)
# T1 sequence: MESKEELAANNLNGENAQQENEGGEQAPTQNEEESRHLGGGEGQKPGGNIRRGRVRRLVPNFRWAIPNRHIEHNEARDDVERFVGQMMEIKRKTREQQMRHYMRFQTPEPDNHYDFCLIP
# T2: TAP-tagged BEX4 (U2OS) (human) (UniProt Q9NWD9)
# T2 sequence: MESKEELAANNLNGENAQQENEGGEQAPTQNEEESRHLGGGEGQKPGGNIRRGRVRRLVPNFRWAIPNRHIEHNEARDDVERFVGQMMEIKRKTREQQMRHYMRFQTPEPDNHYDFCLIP
# T3: GST-BEX4 (full-length; FL) (human) (UniProt Q9NWD9)
# T3 sequence: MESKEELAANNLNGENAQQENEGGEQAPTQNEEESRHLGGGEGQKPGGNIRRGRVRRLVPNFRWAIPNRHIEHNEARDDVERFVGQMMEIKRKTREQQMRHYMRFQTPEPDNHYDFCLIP
# T4: GST-BEX4 C-terminal (C; 61 ~120 a.a) (human) (UniProt Q9NWD9)
# T4 sequence: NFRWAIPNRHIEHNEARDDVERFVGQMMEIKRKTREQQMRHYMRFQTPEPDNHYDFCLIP
# T5: GST-BEX4 N-terminal (N; 1~60 a.a) (human) (UniProt Q9NWD9)
# T5 sequence: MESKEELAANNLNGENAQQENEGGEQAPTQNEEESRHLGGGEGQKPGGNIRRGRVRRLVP
# T6: GST-BEX4 middle (M; 31~90 a.a) (human) (UniProt Q9NWD9)
# T6 sequence: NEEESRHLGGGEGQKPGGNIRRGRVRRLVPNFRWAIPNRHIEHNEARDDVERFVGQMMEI
# T7: GST-SIRT2 H187Y mutant (UniProt Q8IXJ6)
# T7 sequence: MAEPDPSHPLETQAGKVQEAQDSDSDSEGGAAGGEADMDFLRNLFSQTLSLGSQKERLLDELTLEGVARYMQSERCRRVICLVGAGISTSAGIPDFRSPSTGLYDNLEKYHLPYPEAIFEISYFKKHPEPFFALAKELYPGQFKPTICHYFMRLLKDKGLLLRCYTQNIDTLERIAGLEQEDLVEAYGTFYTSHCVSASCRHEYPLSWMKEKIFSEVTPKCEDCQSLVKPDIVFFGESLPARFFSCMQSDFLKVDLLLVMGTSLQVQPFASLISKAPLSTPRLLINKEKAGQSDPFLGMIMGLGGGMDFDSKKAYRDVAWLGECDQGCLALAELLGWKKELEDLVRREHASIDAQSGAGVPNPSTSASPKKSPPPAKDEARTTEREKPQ
# T8: GST-SIRT2 wild type (WT) (UniProt Q8IXJ6)
# T8 sequence: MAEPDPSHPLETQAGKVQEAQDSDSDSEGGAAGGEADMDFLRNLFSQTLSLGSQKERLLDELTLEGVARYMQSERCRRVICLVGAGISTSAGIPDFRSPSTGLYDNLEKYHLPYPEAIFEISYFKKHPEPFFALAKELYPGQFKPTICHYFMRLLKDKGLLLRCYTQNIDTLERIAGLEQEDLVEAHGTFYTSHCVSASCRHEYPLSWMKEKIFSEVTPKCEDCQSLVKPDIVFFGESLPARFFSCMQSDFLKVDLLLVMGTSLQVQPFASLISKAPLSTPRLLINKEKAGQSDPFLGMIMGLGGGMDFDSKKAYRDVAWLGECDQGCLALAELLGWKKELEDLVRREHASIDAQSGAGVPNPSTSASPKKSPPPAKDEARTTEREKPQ
# How the values were obtained:
# [1] = target: T1, BEX4 (endogenous, U2OS) (human (endogenous in U2OS)); test: co-IP; U2OS cell lysates immunoprecipitated with anti-BEX4 antibody and immunoblotted
# [2] = target: T2, TAP-tagged BEX4 (U2OS) (human); test: pull-down; lysates of U2OS cells transfected with TAP or TAP-BEX4 incubated with streptavidin beads; bound proteins immunoblotted
# [3] = target: T3, GST-BEX4 (full-length; FL) (human); test: pull-down; U2OS cell extracts incubated with beads bound to GST, GST-BEX4 (FL) or GST-BEX4 N, M, C; bound proteins immunoblotted; only the target purified
# [4] = target: T3, GST-BEX4 (full-length; FL) (human); test: as above; remark: listed apart in the source
# [5] = target: T4, GST-BEX4 C-terminal (C; 61 ~120 a.a) (human); test: as above
# [6] = target: T5, GST-BEX4 N-terminal (N; 1~60 a.a) (human); test: as above
# [7] = target: T6, GST-BEX4 middle (M; 31~90 a.a) (human); test: as above
# GST-SIRT2 H187Y mutant = target: T7, GST-SIRT2 H187Y mutant; test: pull-down; purified GST, GST-SIRT2 (WT) or GST-SIRT2 H187Y incubated with U2OS cell extracts and pulled down with beads; bound proteins immunoblotted; only the target purified
# GST-SIRT2 wild type (WT) = target: T8, GST-SIRT2 wild type (WT); test: as above
Molecule,binding [1],binding [2],binding [3],binding [4],binding [5],binding [6],binding [7],binding (GST-SIRT2 H187Y mutant),binding (GST-SIRT2 wild type (WT))
"histone deacetylase 6 (endogenous, U2OS) (from UniProt Q9UBN7 1-1215) (enzyme)",no binding,no binding,no binding,,,,,,
"alpha tubulin acetyltransferase 1 (endogenous, U2OS) (from UniProt Q5SQI0 1-421) (enzyme)",no binding,no binding,no binding,,,,,,
"sirtuin 2 (endogenous, U2OS) (enzyme, UniProt Q8IXJ6 1-389) MAEPDPSHPLETQAGKVQEAQDSDSDSEGGAAGGEADMDFLRNLFSQTLSLGSQKERLLDELTLEGVARYMQSERCRRVICLVGAGISTSAGIPDFRSPSTGLYDNLEKYHLPYPEAIFEISYFKKHPEPFFALAKELYPGQFKPTICHYFMRLLKDKGLLLRCYTQNIDTLERIAGLEQEDLVEAHGTFYTSHCVSASCRHEYPLSWMKEKIFSEVTPKCEDCQSLVKPDIVFFGESLPARFFSCMQSDFLKVDLLLVMGTSLQVQPFASLISKAPLSTPRLLINKEKAGQSDPFLGMIMGLGGGMDFDSKKAYRDVAWLGECDQGCLALAELLGWKKELEDLVRREHASIDAQSGAGVPNPSTSASPKKSPPPAKDEARTTEREKPQ",binds,binds,,binds,no binding,no binding,binds,,
"BEX4 (endogenous, U2OS) (protein, UniProt Q9NWD9 1-120) MESKEELAANNLNGENAQQENEGGEQAPTQNEEESRHLGGGEGQKPGGNIRRGRVRRLVPNFRWAIPNRHIEHNEARDDVERFVGQMMEIKRKTREQQMRHYMRFQTPEPDNHYDFCLIP",,,,,,,,no binding,binds
